Measurements from PubChem BioAssay (NCI).
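Values below derive from 48-hour exposures of cells grown in 96-well plates, with endpoints linearly interpolated between the two concentrations bracketing the appropriate inhibition level. GI50: concentration for 50% inhibition of growth. TGI: total growth inhibition.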 Numbered stars: 1 amine (or outer) side, 2 acyl side, 3 side chain; on linkers, the order of the positions; unused ones are H or OH. Square brackets hold non-standard residues; d marks the D form. Peptide text beside a SMILES is read from it. * marks the point of attachment. X27 = CC(=O)N(C)SCC(N[*:1])C(=O)[*:2]; Cbz = O=C(OCc1ccccc1)*; Bn = c1ccc(C*)cc1

Tested on: NCI-H322M lung
Assay: NCI anticancer screen, dose series, 48 h

| SMILES | TGI | GI50 |
| --- | --- | --- |
| COc1cc2c(cc1OCCCCOc1cc3c(cc1OC)C(=O)N1CCC[C@H]1C(=O)N3)N=C[C@@H]1CCCN1C2=O | 43.2 µM |  |
| N/N=c1\c2ccccc2c2cc3c(cc12)/c(=N/N)c1ccccc13 | > 100 µM |  |
| COc1ccccc1/C=C1\NC(=S)N(/C=C2\C(=O)Oc3ccccc3C2=O)C1=O | > 100 µM |  |
| CCOC(=O)C(=O)/C(=C/N1C(=O)CC(=O)NC1=S)C(=O)OCC | > 100 µM |  |
| O=C(C/C(=N/O)c1cc(-c2ccccc2)no1)c1ccccc1 | > 100 µM |  |
| NN1C(=O)C(CCO)S/C1=N/N=C1/SC(CCO)C(=O)N1N (stereo not given) | > 100 µM |  |
| COc1cc2c(cc1Nc1nc(Nc3cccc(F)c3C(N)=O)c3cc[nH]c3n1)N(C(=O)CN1CCN(C(C)C)CC1)CC2 | 7.94 µM | 3.23 µM |
| CC(C)(C)c1c2c(c(C(C)(C)C)c3c1OCN(Cc1ccccc1)C3)OCN(Cc1ccccc1)C2 | 50 µM |  |
| O=c1c2cc(Cl)cc(Cl)c2oc2nc3n(c(=O)c12)CCCS3 | > 100 µM |  |
| COC(=O)[C@H](Cc1ccc(OC(C)(C)C)cc1)N[C@H](C)C(=O)N[C@@H](Cc1ccccc1)C(=O)OCc1ccccc1 | > 100 µM |  |
| CCCCCC/C=C1\CCC(CN2CCOCC2)C1=O (stereo not given) | 49.7 µM |  |
| COc1ccc(Nc2cc(C)nc(NCCCNc3ccnc4cc(Cl)ccc34)n2)cc1 | 5.26 µM | 1.95 µM |
| COc1ccc(/C=C2\C=C(c3ccccc3)N(CCc3ccccc3)C2=O)cc1OC | 33.2 µM | 8.77 µM |
| C=C(CN1CC2C[C@](C(=O)OC)(c3cc4ccccc4[nH]3)C1C(OC)C2OC)S(=O)(=O)c1ccccc1 (stereo not given in full) | 14.4 µM |  |
| COc1cc([N+](=O)[O-])c(OC)cc1-c1nc2sc(Cl)cn2c1/C=N/NC1=NCCN1 | 2.6 µM | 1.23 µM |
| Clc1ccc(OCc2nnc3n2N=C(c2ccc(Cl)cc2Cl)CS3)cc1 | 85.8 µM | 16.8 µM |
| O=C1c2cccc(NCCN=Cc3ccccc3O)c2C(=O)c2c(NCCN=Cc3ccccc3O)cccc21 | 3.61 µM | 0.59 µM |
| CC(=O)N1N=C2/C(=C/c3ccc(Cl)cc3)CC(C)CC2C1c1ccc(Cl)cc1 (stereo not given) | > 100 µM | 32.9 µM |
| O=C(CSc1nc2ccc(I)cc2c(=O)n1Cc1ccccc1)NNC(=O)c1ccccc1 | 27.2 µM |  |
| NC12CCC(CC1=O)C2 (stereo not given) | > 100 µM |  |
| O=C(OCc1ccccc1)N(CCCCN(CCCNCc1ccccc1)C(=O)OCc1ccccc1)CCCNCc1ccccc1 | 2.78 µM |  |
| CCOC(=O)C(NC(=O)c1ccccc1)(Nc1ccc(Cl)cc1C(F)(F)F)C(F)(F)F (stereo not given) | > 100 µM |  |
| CCOP(=O)(OCC)/C(C#N)=C/c1cnc[nH]1 | > 100 µM |  |

| SMILES | TGI | GI50 |
| --- | --- | --- |
| Cc1ccc(NC(=O)c2sc3nc4c(cc3c2N)C(=O)CCC4)cc1C | > 100 µM | 0.975 µM |
| CC(=O)NC1C(OCc2ccccc2)OC(COC(=O)CCCCCCCCCCNc2ccc([N+](=O)[O-])c3[nH]c4ccccc4c(=O)c23)C(O)C1OC(C)C(=O)NC(C)C(=O)NC(CCC(N)=O)C(=O)OCc1ccccc1 (stereo not given) | > 100 µM |  |
| CC(C)NC(=O)CCN(C(=O)O)S(=O)(=O)c1ccc(NC(=O)c2ccccc2)cc1 | > 100 µM |  |
| CCCCCCCCC(=O)OCC(CS[As](C)C)OC(=O)CCCCCCCC (stereo not given) | 35.1 µM | 11.5 µM |
| C[C@@H](Oc1ccc(C(=O)NS(=O)(=O)C(C)(C)C)cc1C(F)(F)F)c1ccc(Oc2ccccc2)cn1 | 16.3 µM | 4.24 µM |
| OCc1ccc(N2CCc3ccccc3C2)cc1Cl | 3.98 µM | 0.579 µM |
| O=C(c1ccc(Cl)cc1)N(C(=S)OCc1ccccn1)c1ccccc1 | > 100 µM |  |
| C/C(=N\Nc1nc2cccnc2s1)c1ccccn1 | > 100 µM |  |
| COc1ccc(C2CC3(c4ccccc4)ON=C(c4ccccc4)N3c3ccccc3S2)cc1 (stereo not given) | > 100 µM |  |
| CC(C)Cc1cc2c(cc1O)CCC1C2CC[C@@]2(C)C1CC[C@@H]2O (stereo not given in full) | 25.4 µM |  |
| Cn1c(NCC(O)CN2CCCC2)cc(=O)n(C)c1=O (stereo not given) | > 100 µM | > 100 µM |
| NCC1OC(OC2C(CO)OC(OC3C(O)C(N)CC(N)C3OC3OC(CO)C(O)CC3N)C2O)C(N)C(O)C1OC1OC(CO)C(O)C(O)C1O (stereo not given) | > 50 µg/mL | > 50 µg/mL |
| Cn1cc(C2=C(c3cn(C)c4ccccc34)C(=O)NC2=O)c2ccccc21 | > 25 µM | > 20.7 µM |
| CSc1ccc(/C=C2\N=C(c3ccccc3)N(c3nc4cc(C)c(C)cc4s3)C2=O)cc1 | > 100 µM |  |
| COc1ccc(C2=NN(C(=O)c3cc(OC)c(OC)c(OC)c3)C(c3ccc(N(C)C)cc3)C2)cc1 (stereo not given) | > 100 µM | 9.2 µM |
| Oc1cc2ccccc2c(-c2c(O)c(O)cc3ccccc23)c1O | 34.1 µM | 2.46 µM |
| Clc1cc(Cl)cc(N2N=C(c3cccc(Nc4ccncc4)c3)CC2c2ccc3c(c2)OCO3)c1 (stereo not given) | 2.95 µM | 1.57 µM |
| COc1cc(C2C(Cl)C(=O)N2NC(=O)c2ccc(N)cc2)cc(Br)c1O (stereo not given) | 28.8 µM |  |
| O=Cc1ccc(CCl)cc1 | 54.5 µM |  |
| COc1ccc2nc3cc(Cl)ccc3c(Sc3ccc([N+](=O)[O-])cc3)c2c1 | > 100 µM | > 100 µM |
| COc1ccc2nc3ccc(OC)cc3c(SCc3ccccc3)c2c1 | > 50.4 µM |  |
| CCN1Cc2nc3sc(C)c(C)c3c(=O)n2C=C1C | > 100 µM | 32.3 µM |
| Cc1c2ccncc2c(C)c2c1[nH]c1ccc(OCC(F)(F)F)cc12 | 3.59 µM |  |

| SMILES | TGI | GI50 |
| --- | --- | --- |
| CC1(c2ccccc2)CC(c2cccc([N+](=O)[O-])c2)=NO1 (stereo not given) | > 100 µM |  |
| Cn1c(=O)sc2cc(C(=S)N3CCC(Cc4ccccc4)CC3)ccc21 | > 100 µM |  |
| COc1ccc(C2C(C)C(=O)C(C)C(c3ccc(OC)cc3)N2N=O)cc1 (stereo not given) | > 1000 µM |  |
| C=C[C@]1(C)CCC2=C(CCC3C2(C)CCC[C@@]3(C)COC(C)=O)C1 (stereo not given in full) | 68.8 µM |  |
| COc1ccc(C2C3CCc4ccccc4C3=NN2S(=O)(=O)c2ccc(/C=C/C(=O)O)cc2)cc1 (stereo not given) | > 100 µM |  |
| COC(=O)C1=C(C(=O)OC)C2(C)Nc3ccccc3C2=C(c2ccccc2)C1 (stereo not given) | 45.6 µM |  |
| CC(=O)C1=C(C)N(c2ccc(C)cc2)C2(O)C3=C(C(=O)c4ccccc4C3=O)C(O)=CC12Cl (stereo not given) | > 100 µM |  |
| COc1ccc(-n2ccnc2-c2cc(OC)c(OC)c(OC)c2)cc1 | > 100 µM | 7.62 µM |
| COc1cc(-c2c(C#N)c(N)nc(N3CCOCC3)c2C#N)cc(OC)c1OC | > 100 µM | > 100 µM |
| CC(=O)N(C)SCC(NC(=O)C(Cc1ccccc1)NC(=O)OCc1ccccc1)C(=O)NC(Cc1ccccc1)C(=O)NC(Cc1c[nH]c2ccccc12)C(=O)NC(CCCCNC(=O)OCc1ccccc1)C(=O)NC(C(=O)NC(CSN(C)C(C)=O)C(=O)NC(C(N)=O)C(C)OCc1ccccc1)C(C)OCc1ccccc1 (stereo not given) (Cbz-F[X27]FWK(Cbz)T(Bn)[X27]T(Bn)-NH2; configuration not given here) | > 100 µM |  |
| O=C(O)CC(Sc1ccccc1)c1ccccc1 (stereo not given) | > 100 µM |  |
| CC(=O)OC1CC2C3CCC4C[C@@H](NC(=O)C=C(C)C)CC[C@]4(C)C3CC[C@]2(C)[C@H]1C(C)N(C)C (stereo not given in full) | 5.89 µM | 2.39 µM |
| CN(Cc1cc(Cl)cc(Cl)c1O)Cc1c(O)ccc2ccccc12 | 36.6 µM |  |
| COc1ccc(C(=O)/C=C/c2ccc(OCCSCCCCCCCCCCSCCOc3ccc(/C=C/C(=O)c4ccc(OC)c(OC)c4)cc3)cc2)cc1OC | > 100 µM |  |
| O=C(c1ccco1)c1c(C(F)(F)F)n([O-])c2ccc(Cl)cc2[n+]1=O | 9.85 µM | 3.81 µM |
| Cc1ccc(NC(=O)/C(Cl)=C(/Cl)C(=O)O)cc1 | > 100 µM |  |
| c1ccc2c(c1)N=C(c1cccc3ccccc13)CC(c1ccc3c(c1)OCO3)S2 (stereo not given) | > 100 µM |  |
| FC(F)(Sc1ncc[nH]1)c1nc2ccccc2o1 | > 100 µM |  |
| CC1OC(OC2C(OC3CCC4(C)C(CCC5(C)C4CC=C4C6CC(C)(C)CCC6(C(=O)O)CCC45C)C3(C)CO)OCC(O)C2O)C(O)C(O)C1O (stereo not given) | 37.3 µM |  |
| CC(=O)Nc1nnc(S(C)(=O)=O)s1 | > 100 µM |  |
| COC(=O)/C=C/C1(O)C=CC(=O)C=C1 | 29.3 µM |  |
| CC(C)(C)CC(N)=O | > 100 µM |  |
| CCOc1cccc(-c2nc(N)nc(Nc3ccccc3SSc3ccccc3Nc3nc(N)nc(-c4cccc(OCC)c4)n3)n2)c1 | > 100 µM | 34.9 µM |

| SMILES | TGI | GI50 |
| --- | --- | --- |
| CC(C)(C)C1=CC(=C2C(=O)C(=O)c3ccccc3C2=O)C=C(C(C)(C)C)C1=O | > 100 µM |  |
| COc1cc(/C=C2\C[C@H]3[C@@H]4CC=C5C[C@@H](O)CC[C@]5(C)[C@H]4CC[C@]3(C)[C@H]2O)ccc1OCCCn1ccnc1 | 6.61 µM | 0.677 µM |
| CCOC1Oc2ccccc2-c2nc(SC)ncc21 (stereo not given) | > 100 µM |  |
| Cc1cc(C)nc(NS(=O)(=O)c2ccc(Nc3c4ccc(Cl)cc4nc4c(C(=O)NCCN(C)C)cccc34)cc2)n1 | > 100 µM |  |
| O=C1CCSC2=C1SCc1sccc12 | > 100 µM |  |
| COc1cccc(NC(=O)C(=O)C(C(=O)c2ccccc2F)C2OC(=O)c3ccccc32)c1 (stereo not given) | > 100 µM |  |
| COC(=O)C1(C(=O)OC)N=C(C)OC1/C=C/c1ccccc1 (stereo not given) | > 100 µM |  |
| Cc1cccc(-c2cc(=O)c3c(C)cc(C)nc3[nH]2)c1 | > 100 µM |  |
| COc1ccc(/C=C2\CCC/C(=C\c3ccc(O)c(CN4CCCCC4)c3)C2=O)cc1 | > 81.4 µM |  |
| CC(=O)NC(Cc1ccsc1)C(=O)O (stereo not given) | > 100 µM |  |
| Cn1c(/C=C/[N+](=O)[O-])cc2ccccc21 | 43.5 µM | 17.9 µM |
| CCOC(=O)c1c2c(c(O)c3ccccc3c(O)n(Cc3ccccc3)c1C)C(=O)C=CC2=O | > 100 µM |  |
| C[N+](C)(C)CC(=O)N/N=C/c1ccncc1 | > 100 µM |  |
| C[C@@H](NC(=O)c1ccc(CNC(=O)/C=C/c2cccc(Oc3ccccc3)c2)cc1)c1ccccc1 | > 100 µM |  |
| NC(N)=N/N=C/c1ccc(-c2ccc(-c3cc(Cl)cc(Cl)c3)s2)cc1 | 3.14 µM | 1.65 µM |
| CC(=O)Oc1ccc(/C(=C(\C)c2ccc(Cl)cc2)c2ccc(OCCN3CCCCC3)cc2)cc1 | 8.87 µM | 2.83 µM |
| COc1cc2c(cc1OC)C(=O)/C(=C/c1cc(OC)c(OC)c(OC)c1)C2 | > 100 µM |  |
| COc1ccc(C2C=C(c3ccc4c(c3)OCO4)Oc3c2c(=O)oc2ccccc32)cc1OC (stereo not given) | > 100 µM |  |
| O=C(Nc1ccccc1)c1cc(S(=O)(=O)Nc2nc3ccccc3o2)c(SCc2ccccc2)cc1Cl | 29.2 µM | 15 µM |
| COc1cc(/C=C/C(=O)N2CCN(C(=O)c3cc(OC)c(OC)c(OC)c3)CC2)ccc1OCCCOc1cc2c(cc1OC)C(=O)N1CCC[C@H]1C=N2 | 9.25 µM | 1.03 µM |
| COP(=O)(OC)C(O)CC(C)C (stereo not given) | > 100 µM |  |
